According to PubChem BioAssay AID504845 (National Center for Advancing Translational Sciences (NCATS), 2011):
“And” between values parts separate entries of the source, which are not always exact repeats. Equal values may be shown once. Out of some 390,000 compounds screened, about 150 (0.038%) were called active. Roughly 3% stayed inconclusive and do not appear here. Calls follow the shape of the dose curve; as a rule, active = well fitted inhibition curve with a large enough effect; inconclusive = small, poorly fitted or top-dose-only effect; inactive = no such curve, though single readings can be large or run the other way. Only a part is listed here, and it is no random draw. More than one record can exist for a structure, and the calls need not agree. Starred links: 1 amine or outer side, 2 acyl side, 3 side chain; linkers in the order of their positions; H or OH if unused. Non-standard residues stand in square brackets, D forms with d. Residues, ends and D or L forms follow the SMILES beside them. X2 = C[C@H](O)[C@@H](C(=O)[*:2])N(C(C)(C)C)[*:1]; X1 = CC(C)(C)N([C@@H](CS)C(=O)[*:2])[*:1]

The compounds below were run against Regulator of G-protein signaling 4 (Homo sapiens) (UniProt P49798) (assay: Inhibitors of Regulator of G Protein Signaling (RGS) 4: qHTS). Details: Transcreener GDP fluorescence polarization, RGS4-accelerated GTP hydrolysis; series mostly up to 114 µM; activity change, negative = inhibition: at the top concentration.
Sequence of UniProt P49798 (P49798 whole entry, looked up, the tested form may be a part): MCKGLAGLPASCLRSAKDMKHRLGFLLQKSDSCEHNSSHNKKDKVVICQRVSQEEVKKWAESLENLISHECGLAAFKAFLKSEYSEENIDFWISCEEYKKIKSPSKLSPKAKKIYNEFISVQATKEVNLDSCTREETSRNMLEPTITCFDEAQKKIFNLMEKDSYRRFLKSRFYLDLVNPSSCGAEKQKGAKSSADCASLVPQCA
From the text: G-protein-coupled receptors (GPCRs) are well-established targets for drug discovery and development. Members of the "regulator of G-protein signaling" (RGS)-protein superfamily have recently emerged as critical modulators of specific GPCR signaling pathways. […] Combining specific RGS domain inhibitors with existing GPCR agonists should potentiate cellular responses and could also increase the specificity of action of existing therapeutics. Small molecule modulators of RGS domain activity should also have clinical utility in inhibiting or potentiating the actions of endogenous GPCR agonists. In particular, the diversity of RGS proteins with highly localized and dynamically regulated distributions in the human brain makes this family of proteins attractive targets for pharmacotherapy of central nervous system (CNS) disorders such as Parkinson's disease, schizophrenia, and anxiety.
This assay was used to screen the NIH Molecular Libraries Small Molecule Repository (MLSMR) in order to identify a small molecule that inhibits RGS4.
NIH Chemical Genomics Center [NCGC]
NIH Molecular Libraries Probe Centers Network [MLPCN]
Assay Submitter (PI): David Siderovski, University of North Carolina Chapel Hill (School of Medicine)
Two microliters of 500nM (2x working concentration) is dispensed into black medium-binding solid-bottom Kalypsys plates. Then with the Kalypsys pintool 23nl of control and compounds are transferred; the control compound is […] CCG-4986 (working concentration). After a 10 minute incubation at room temperature 2ul of antibody is added with the Kalypsys dispenser; (-)RGS4/Transcreener GDP solution in columns 3 and 4 which consisted of 10nM (2x working concentration) Alexa633, 20uM GTP, and 20 ug/ml GDP antibody and (+)RGS4/Transcreener GDP solution in columns 1,2, and 5 to 48 which consists of 900nM RGS4 (2x working concentration), 10nM Alexa633, 20 ug/ml GDP antibody. The plate is centrifuged at 1000 RPM for 15 seconds to remove any possible bubbles and then incubated for 5 minutes at ambient room temperature. An initial fluorescent polarization read (620 nm/688 nm) is performed on the Envision before the plate is incubated for 90 minutes at 30 deg C at a relative humidity of 80%. The plate is once more centrifuged at 1000 RPM for 15 seconds and another Envision fluorescent polarization (620 nm/688 nm) read is carried out.
% is scaled to controls: 0 for no effect and ±100 for the full control effect; potency is read from the fitted curve at half-maximal effect.
Also: nearly all actives have a fitted effect of over 75% in size.

SMILES | activity change, negative = inhibition | Potency
C[C@H](N)Cc1cccc(C(F)(F)F)c1 | inactive: 23.5% [at 56.9 µM] | 
Oc1ccc2c3c1O[C@H]1c4[nH]c5ccccc5c4C[C@@]4(O)[C@@H](C2)N(CC2CC2)CC[C@]314 | inactive: -1.83% | 
CC(C)(O)[C@H]1O[C@H]2CC[C@@]3(C)[C@@](O)(CC[C@H]4Cc5c([nH]c6ccccc56)[C@@]43C)C2=CC1=O | inactive: 9.24% | 
C[N+](C)(C)CCOC(=O)CBr |  | inactive
CNCCc1ccc(O)c(O)c1 | inactive: -5.13% | 
CN(N=O)c1ccc(O)c(O)c1 |  | active: 5.97 µM
CCCN1CCC[C@@H]2Cc3nc(N)ncc3C[C@H]21 | inactive: 4.8% | 
C=CCN1CC[C@]23c4c5ccc(O)c4O[C@H]2/C(=N/NC(=O)c2ccccc2)CC[C@@]3(O)[C@H]1C5 | inactive: -35% | 
CC(C)C[C@H](NC(=O)[C@H](Cc1ccccc1)NC(=O)CNC(=O)[C@H](CS)N(C(=O)[C@@H](N)Cc1ccc(O)cc1)C(C)(C)C)C(=O)N([C@H](C(=O)O)[C@H](C)O)C(C)(C)C (H-Y[X1]GFL[X2]-OH) | inactive: 470% [at 56.9 µM] | 
C[C@H](CCC(=O)O)[C@H]1CC[C@H]2[C@@H]3[C@@H](O)C[C@@H]4C[C@H](O)CC[C@]4(C)[C@H]3CC[C@]12C | inactive: -10.8% | 
CN(C)c1ccc(/C=C/c2cc[n+](C)c3ccccc23)cc1 | inactive: -18.5% | 
O=C(c1ccccc1)N1CCN(CCc2ccccc2)CC1 | inactive: 57.2% | 
O=c1[nH]c2ccccc2n1CCCN1CCC(n2c(=O)[nH]c3cc(Cl)ccc32)CC1 | inactive: 0.174% | 
CN(CCc1ccc(Cl)c(Cl)c1)[C@H]1CCCC[C@H]1N1CCCC1 | inactive: 478% [at 56.9 µM] | 
C/C=C1/C[N+]2(C)CCC34C(=C(C=O)[C@H]1C[C@@H]32)Nc1ccccc14 (stereo partly drawn) | inactive: -21.5% | 
C#CCN(C)C(C)Cc1ccccc1 (stereo not drawn) | inactive: 13.7% | 
O=[N+]([O-])c1ccc(C2[C@H]3C(c4ccccc4)=NC4(CCCC4)N23)cc1 (stereo partly drawn) | inactive: 0.934% | 
CC(C)C[C@H]1C(=O)N2CCC[C@@H]2[C@]2(O)O[C@](NC(=O)[C@@H]3C=C4c5cccc6[nH]c(Br)c(c56)C[C@H]4N(C)C3)(C(C)C)C(=O)N12 | inactive: -154% [at 56.9 µM] | 
NC(N)=NC(=O)c1nc(Cl)c(N)nc1N |  | inactive
CC[C@@H]1C(=O)OC[C@@H]1Cc1cncn1C |  | inactive

SMILES | activity change, negative = inhibition | Potency
N[C@@H](Cn1oc(=O)[nH]c1=O)C(=O)O |  | inactive
CCOC(=O)c1ncn2c1CN(C)C(=O)c1cc(F)ccc1-2 |  | inactive
CN(C)C1C(=O)C(C(N)=O)=C(O)[C@@]2(O)C(=O)C3=C(O)c4c(O)cccc4[C@@](C)(O)C3[C@H](O)C12 (stereo partly drawn) | inactive: 129% [at 56.9 µM] | 
O=[N+]([O-])c1ccc2nc(N3CCNCC3)ccc2c1 |  | inactive
CC(C)N(CCC(C(N)=O)(c1ccccc1)c1ccccn1)C(C)C (stereo not drawn) |  | inactive
N[C@@H](Cc1ccc(N(CCCl)CCCl)cc1)C(=O)O | inactive: -27.9% | 
CC(C)=CCOc1c2occc2cc2ccc(=O)oc12 | inactive: 10.7% [at 56.9 µM] | 
Ic1ccccc1CN[C@@H]1C2CCN(CC2)[C@@H]1C(c1ccccc1)c1ccccc1 | inactive: -22.7% | 
CNCC[C@@H](Oc1ccc(C(F)(F)F)cc1)c1ccccc1 | inactive: -12.3% | 
C[C@H](N)CN1CCc2ccc(Br)cc21 | inactive: 2.88% | 
CC(=O)N1CCN(c2ccc(OC[C@H]3CO[C@](Cn4ccnc4)(c4ccc(Cl)cc4Cl)O3)cc2)CC1 |  | inactive
N#C/C(=C/c1ccc(O)c(O)c1)C(N)=S |  | active: 6.7 µM
CC[C@@]1(O)C(=O)OCc2c1cc1n(c2=O)Cc2cc3ccccc3nc2-1 |  | inactive
CCC(C)/C=C(C)/C=C/C1=CC2=C(Cl)C(=O)C(C)(OC(C)=O)C(=O)C2=CO1 (stereo not drawn) | inactive: -22.1% | 
CN1C[C@H](C(=O)N[C@]2(C)O[C@@]3(O)[C@@H]4CCCN4C(=O)[C@H](Cc4ccccc4)N3C2=O)C[C@@H]2c3cccc4[nH]cc(c34)C[C@H]21 | inactive: -7.81% [at 56.9 µM] | 
CC(CCc1ccccc1)NC(C)C(O)c1ccc(O)cc1 (stereo not drawn) |  | inactive
CCN1C[C@]2(COC)CC[C@H](OC)[C@@]34C1[C@]1(OCO[C@@]15C[C@H](OC)[C@H]1C[C@@H]3[C@@H]5[C@H]1OC)[C@@H](O)[C@H]24 | inactive: -4.09% | 
CCCN1CCCC2Cc3nc(N)ncc3CC21 (stereo not drawn) | inactive: 380% [at 56.9 µM] | 
Oc1ccc2c3c1O[C@H]1c4[nH]c5c(c4C[C@@]4(O)[C@@H](C2)N(CC2CC2)CC[C@]314)C[C@@]1(O)[C@H]2Cc3ccc(O)c4c3[C@@]1(CCN2CC1CC1)[C@H]5O4 | inactive: 10.9% [at 56.9 µM] | 
CN1C[C@H](C(=O)NC2(C)OC3(O)[C@@H]4CCCN4C(=O)[C@H](Cc4ccccc4)N3C2=O)CC2c3cccc4[nH]cc(c34)C[C@H]21 (stereo partly drawn) | inactive: 1.91% | 

SMILES | activity change, negative = inhibition | Potency
C=C1C(=O)O[C@@H]2C[C@@H](C)[C@@H]3C=CC(=O)[C@@]3(C)[C@@H](O)[C@H]12 |  | active: 21.2 µM
CN1CCCCC1c1cccnc1 (stereo not drawn) |  | active: 37.7 µM
N[C@H](Cc1ccc(O)cc1)C(=O)O | inactive: -12.2% [at 56.9 µM] | 
COc1cc(OC)c(/C=C2\C(=O)Nc3ccccc32)c(OC)c1 | inactive: 21.6% | 
CCS(=O)(=O)Nc1cccc(C(=C2CCCCC2)c2cnc[nH]2)c1 |  | inactive
NCC(O)c1cc(O)c(O)cc1F (stereo not drawn) |  | inactive and active: 18.9 µM
C[N+]1(C)[C@@H]2CC[C@H]1CC(OC(=O)[C@@H](CO)c1ccccc1)C2 (stereo partly drawn) | inactive: -33.1% | 
CC1(C(=O)O)CCCC2(C)c3cc(O)ccc3CCC12 (stereo not drawn) | inactive: 37% | 
Oc1ccc2c3c1O[C@H]1c4[nH]c5ccccc5c4C[C@@]4(O)C(C2)N(CC2CC2)CCC314 (stereo partly drawn) | inactive: 1.32% [at 56.9 µM] | 
CC(N)Cc1c[nH]c2ccc(OCc3cccs3)cc12 (stereo not drawn) | inactive: -38.1% | 
CC(C)[C@@]1(NC(=O)[C@@H]2C[C@@H]3c4cccc5[nH]cc(c45)C[C@H]3N(C)C2)O[C@@]2(O)[C@@H]3CCCN3C(=O)[C@H](Cc3ccccc3)N2C1=O |  | inactive
C[N+](C)(C)CC#CCN1CCCC1=O | inactive: -31% | 
CNC(=O)Oc1ccc2c(c1)[C@@]1(C)CCN(C)[C@@H]1N2C | inactive: -183% [at 56.9 µM] | 
CN1C[C@H](C(=O)N[C@]2(C)O[C@@]3(O)[C@@H]4CCCN4C(=O)[C@H](Cc4ccccc4)N3C2=O)CC2c3cccc4[nH]cc(c34)C[C@H]21 (stereo partly drawn) |  | inactive
OC(CNCCc1c[nH]c2ccccc12)C(F)(F)F (stereo not drawn) | inactive: 62.1% | 
C[N+]1(C)CCN(c2ccccc2)CC1 | inactive: -15.2% | 
CCCN1CCC[C@H](c2cccc(O)c2)C1 |  | inactive
N[C@@]1(C(=O)O)CC[C@@H](C(=O)O)C1 |  | inactive
